# Measurements from PubChem BioAssay AID588591 (National Center for Advancing Translational Sciences (NCATS), 2011).
# Out of some 390,000 compounds screened, about 4,700 (1.2%) were called active. The inconclusive results got no clear call from the source; some entries with a clear call stand among them for comparison. The call rests on the fitted dose curve; in most records, active means well fitted inhibition curve with a large enough effect; inconclusive means small, poorly fitted or top-dose-only effect, or another doubt; inactive means no such curve, though single readings can be large or run the other way. Where the call is inconclusive, the potency comes from a doubtful curve fit.
# Molecular target: DNA polymerase eta (Homo sapiens) (UniProt Q9Y253)
# Chain of UniProt Q9Y253 (Q9Y253 whole entry, looked up): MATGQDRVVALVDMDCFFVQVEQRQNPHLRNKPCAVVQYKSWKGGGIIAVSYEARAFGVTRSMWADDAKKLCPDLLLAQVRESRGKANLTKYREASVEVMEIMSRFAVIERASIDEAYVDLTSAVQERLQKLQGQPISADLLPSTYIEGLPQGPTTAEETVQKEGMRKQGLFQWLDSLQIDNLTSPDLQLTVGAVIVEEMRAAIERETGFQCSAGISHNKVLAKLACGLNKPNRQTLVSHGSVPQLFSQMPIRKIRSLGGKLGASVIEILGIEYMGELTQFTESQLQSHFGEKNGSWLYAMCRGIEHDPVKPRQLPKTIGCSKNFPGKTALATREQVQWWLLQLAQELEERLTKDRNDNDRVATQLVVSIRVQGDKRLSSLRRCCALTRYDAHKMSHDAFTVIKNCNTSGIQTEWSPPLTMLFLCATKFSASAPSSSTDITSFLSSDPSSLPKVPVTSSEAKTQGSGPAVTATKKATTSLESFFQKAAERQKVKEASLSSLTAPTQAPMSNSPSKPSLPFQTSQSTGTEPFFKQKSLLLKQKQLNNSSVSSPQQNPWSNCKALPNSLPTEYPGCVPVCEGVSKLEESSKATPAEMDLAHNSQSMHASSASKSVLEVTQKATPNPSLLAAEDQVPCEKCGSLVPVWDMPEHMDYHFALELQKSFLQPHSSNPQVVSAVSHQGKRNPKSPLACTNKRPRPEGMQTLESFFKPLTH
# Assay: qHTS for Inhibitors of Polymerase Eta
# Conditions: recombinant Pol eta, fluorescent DNA replication assay; series mostly up to 114 µM
# In short: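 Pol eta (10 nM) was preincubated with compounds for 15 min at room temperature, after which fluorescent replication substrate (50 nM final) was added to start the reaction. Fluorescence was read kinetically at 0 and 10 min.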
# Potency means the concentration at half of the fitted maximal effect; tags describe the fitted curve by direction and shape.
row,SMILES,Potency
1,CCOC(=O)c1cnc(SCC(=O)Nc2cc(OC)ccc2OC)nc1N,"inconclusive: 25.1 µM [inhibitor, single point]"
2,O=S(=O)(O)c1cc2onnc2c2ccccc12,"inconclusive: 22.4 µM [inhibitor, full curve]"
3,COc1cc(/C=N/NC(=O)c2ccc3nc[nH]c3c2)cc(OC)c1OC,"inconclusive: 15.8 µM [inhibitor, full curve, poor fit]"
4,Cc1ccc2c(CC(=O)OCC(=O)N(CC(C)C)c3c(N)n(Cc4ccccc4)c(=O)[nH]c3=O)coc2c1,active: 20 µM
5,CNC(=O)C1CC(=O)N(c2ccc(OCC(=O)Nc3ccc(F)cc3)cc2)C1 (stereo unspecified),"inconclusive: 17.8 µM [inhibitor, full curve, poor fit]"
6,O=C(Nc1ccc(Cl)c([N+](=O)[O-])c1)c1cnccn1,active: 22.4 µM
7,Cc1cc(C)nc(NC(=O)Cc2cccs2)n1,inactive
8,COC(=O)c1c(C)sc(-c2c(-c3ccc4c(c3)OCCO4)[nH]c3c2c(=O)[nH]c(=O)n3C)c1O,"inconclusive: 25.1 µM [inhibitor, full curve]"
9,O=C(O)CN1c2cccc3cccc(c23)S1(=O)=O,active: 28.2 µM
10,COc1ccc2nc(C)cc(SCC(=O)NNC(=O)COc3cccc4ccccc34)c2c1,"inconclusive: 14.1 µM [inhibitor, partial curve, poor fit]"
11,Cc1ccc(C2C(C#N)=C(N)Oc3n[nH]c(-c4ccccc4)c32)o1 (stereo unspecified),"inconclusive: 31.6 µM [inhibitor, single point]"
12,NS(=O)(=O)c1cnccc1Nc1ccc(Cl)c(Cl)c1,"inconclusive: 79.4 µM [inhibitor, partial curve, poor fit]"
13,COc1ccc(CCn2c(=N)c(C(=O)NCc3ccco3)cc3c(=O)n4cccc(C)c4nc32)cc1,"inconclusive: 11.2 µM [inhibitor, partial curve]"
14,COc1cccc(CC(=O)Nc2ccc3c(c2)OC2(CCCC2)O3)c1,"inconclusive: 89.1 µM [inhibitor, single point]"
15,Cc1c(NCc2ccccc2O)c(=O)n(-c2ccccc2)n1C,"inconclusive: 100 µM [inhibitor, partial curve, poor fit]"
16,COc1cc(/C=C(\CC(=O)O)c2nc3ccccc3s2)ccc1OCC(=O)Nc1ccccc1F,"inconclusive: 31.6 µM [inhibitor, partial curve]"
17,CCNc1ccccc(C(=O)/C=C/c2ccc3c(c2)OCO3)c1=O,active: 10 µM
18,O=c1nc2cccc3c2=c(/c1=C(\O)c1ccccc1)c1ccccc1c3=O,active: 50.1 µM
19,CS(=O)(=O)c1ccc(C(=O)OCc2nnc(-c3ccccc3)o2)cc1[N+](=O)[O-],"inconclusive: 79.4 µM [inhibitor, single point]"
20,O=C(CN1CCCCCC1)Nc1ccc(S(=O)(=O)N2CCOCC2)cc1,"inconclusive: 2.82 µM [inhibitor, full curve, poor fit]"
21,COc1ccc(Cc2nnc(NC(=O)Cc3cccs3)s2)cc1OC,active: 6.31 µM
22,COc1cc(NC(=O)CSc2ncnc3sc4c(c23)CCCC4)c(C(=O)O)cc1OC,"inconclusive: 35.5 µM [inhibitor, partial curve, poor fit]"

row,SMILES,Potency
1,O=C(O)COc1cccc(/C=C2/SC(=S)N(Cc3ccccc3)C2=O)c1,active: 79.4 µM
2,Cc1ccc(CNC(=O)COc2ccc(C)nc2[N+](=O)[O-])cc1,inactive
3,CCn1cc(/C=N/NC(=O)COc2cccc3cccnc23)c2ccccc21,"inconclusive: 17.8 µM [inhibitor, partial curve]"
4,CC(=O)Nc1cc(N=Cc2ccc(O)cc2O)c(Cl)cc1Cl,active: 44.7 µM
5,Cc1ccc(C(=O)Nc2ccc(N3CCN(C(=O)c4ccco4)CC3)cc2)c(Cl)c1,"inconclusive: 100 µM [inhibitor, partial curve, poor fit]"
6,O=C(Cc1ccccc1)Nc1ccc(NC(=O)c2ccccc2)nc1,inactive
7,Cc1ccc(-c2cc(C(=O)Nc3ccc(S(=O)(=O)Nc4onc(C)c4C)cc3)c3ccccc3n2)cc1,active: 89.1 µM
8,CNc1cc(C(F)(F)F)nc(-c2ccccn2)n1,inactive
9,O=C1C2C(C(=O)N1/N=C/c1cc([N+](=O)[O-])ccc1O)C1C=CC2C12CC2 (stereo unspecified),inactive
10,CCC(CO)Oc1cc(NC(=O)c2ccc(N)cc2)c2ncn(C(C)C)c2c1 (stereo unspecified),active: 89.1 µM
11,Cc1nnc2ccc(-c3ccc(NS(=O)(=O)c4ccccc4[N+](=O)[O-])cc3)nn12,active: 39.8 µM
12,COC(=O)c1ccc(CN(Cc2ccc(OC)c(OC)c2)S(=O)(=O)c2cc(C(=O)Nc3cccc(C)c3)ccc2F)cc1,inactive
13,O=C(OCN1C(=O)c2ccccc2C1=O)/C(=C\c1ccco1)NC(=O)c1ccccc1,"inconclusive: 22.4 µM [inhibitor, partial curve, poor fit]"
14,CC(=O)OCC1=C(C(=O)O)N2C(=O)C(NC(=O)CC(C)c3ccccc3)C2SC1 (stereo unspecified),active: 22.4 µM
15,CNS(=O)(=O)c1cn(CC(=O)N2CCN(c3cccc(Cl)c3)CC2)cc1S(=O)(=O)NC,inactive
16,O=C(Nc1cc(S(=O)(=O)N2CCOCC2)ccc1N1CCCC1)c1ccc2c(c1)S(=O)(=O)c1ccccc1C2=O,inactive
17,O=C(c1ccco1)N1CCN(C(=O)c2cc(-c3ccccn3)nc3ccc(Cl)cc23)CC1,"inconclusive: 14.1 µM [inhibitor, partial curve, poor fit]"
18,O=C(NCc1ccc(Cl)cc1)C1CCN(S(=O)(=O)c2cc([N+](=O)[O-])ccc2Cl)CC1,inactive
19,COc1ccc(C2CC(=O)Oc3c(C(CCN4CCOCC4)c4cc(OC)c(OC)c(OC)c4)c(OC)cc(OC)c32)cc1 (stereo unspecified),"inconclusive: 89.1 µM [inhibitor, partial curve, poor fit]"
20,O=C(NNC(=O)c1cc2cc3ccccc3nc2s1)c1cccc(Cl)c1,"inconclusive: 12.6 µM [inhibitor, full curve, poor fit]"
21,CCn1cc(C(=O)NCc2ccco2)c(=O)c2cc(S(=O)(=O)N3CCc4ccccc4C3)ccc21,"inconclusive: 12.6 µM [inhibitor, partial curve, poor fit]"
22,COc1cccc(Cn2c(Oc3cc(C)cc(C)c3)nc3c2c(=O)n(C)c(=O)n3C)c1,inactive

row,SMILES,Potency
1,O=c1[nH]nnc2sc3c(c12)CCCC3,"inconclusive: 25.1 µM [inhibitor, partial curve, poor fit]"
2,COC(=O)c1ccccc1NC(=O)c1noc2c1CCCC2,inactive
3,Cn1c(=O)c2c(nc(SCCNS(=O)(=O)c3ccccc3)n2C)n(C)c1=O,"inconclusive: 39.8 µM [inhibitor, partial curve, poor fit]"
4,COc1cccc(-c2nc(CS(=O)CC(=O)NCc3ccccc3)c(C)o2)c1 (stereo unspecified),"inconclusive: 100 µM [inhibitor, partial curve, poor fit]"
5,Cc1ccc(/C=C/C(=O)OC(C)C(=O)NC2CCCCC2C)o1 (stereo unspecified),"inconclusive: 14.1 µM [inhibitor, partial curve, poor fit]"
6,CCCN(c1ccccc1C(=O)O)S(=O)(=O)c1ccc2c(c1)n(C)c(=O)n2C,"inconclusive: 31.6 µM [inhibitor, single point]"
7,CCOC(=O)C1C(c2ccc(O)c(OC)c2)NC(=O)NC1(O)C(F)(F)F (stereo unspecified),inactive
8,Cc1nn2c(=O)cc(COC(=O)Cc3ccccc3)nc2s1,inactive
9,COc1ccc2nc3cc([N+](=O)[O-])ccc3c(NNc3ccc([N+](=O)[O-])cc3)c2c1,"inconclusive: 10 µM [inhibitor, partial curve, poor fit]"
10,COc1cc(CCC(=O)OCC(=O)N(CC(C)C)C2CCS(=O)(=O)C2)cc(OC)c1OC (stereo unspecified),"inconclusive: 3.98 µM [inhibitor, partial curve, poor fit]"
11,CSc1ccc(/C=C/C(=O)c2ccc(NC(C)=O)cc2)cc1,"inconclusive: 14.1 µM [inhibitor, partial curve, poor fit]"
12,O=C(O)CC1S/C(=N/N=C/c2ccc(-c3ccccc3[N+](=O)[O-])o2)NC1=O (stereo unspecified),"inconclusive: 100 µM [inhibitor, single point]"
13,O=C(COc1c(Br)cc(Br)c2cccnc12)Nc1ccccc1F,"inconclusive: 31.6 µM [inhibitor, partial curve, poor fit]"
14,O=C1NC(=S)N/C1=C/c1cc2c(cc1[N+](=O)[O-])OCO2,"inconclusive: 79.4 µM [inhibitor, partial curve, poor fit]"
15,COc1cc(OC)cc(C(=O)NNC(=O)Cc2cccs2)c1,"inconclusive: 50.1 µM [inhibitor, partial curve]"
16,CCN1/C(=C/C(C)=C/c2sc3ccccc3[n+]2CC)Sc2ccccc21,active: 39.8 µM
17,O=C(CCn1cccc1)NCc1ccc2c(c1)OCO2,"inconclusive: 14.1 µM [inhibitor, partial curve, poor fit]"
18,CCOC(=O)c1ccc(NC(=O)CSc2nc3sc(C(=O)O)c(C)c3c(=O)[nH]2)cc1,inactive
19,CN(Cc1ccc(F)cc1)C(=O)c1cccc(NS(=O)(=O)c2ccccc2)c1,inactive
20,C[C@@H]1NC(=O)[C@H](CCC(N)=O)NC(=O)c2cc([N+](=O)[O-])cc(I)c2NCC[C@@H](C(N)=O)NC1=O,inactive
21,Cc1sc(NC(=O)/C=C/c2ccco2)c(C(=O)O)c1C,"inconclusive: 44.7 µM [inhibitor, partial curve]"
22,Cc1ccc(C)c(N2CCN(c3c(CN4CCCC4)c(=O)oc4ccccc34)CC2)c1,inactive
